The campaign covered roughly 270,000 compounds. About 5,800 (2.1%) were called active. Entries that show only a call come without a potency. Inconclusive results, whose numbers are uncertain, are shown with a selection of clear calls. The call rests on the fitted dose curve; in most records, active means well fitted inhibition curve with a large enough effect; inconclusive means small, poorly fitted or top-dose-only effect; inactive means flat fitted curve, though single readings scatter. Where the call is inconclusive, the potency comes from a doubtful curve fit.
Target: Microtubule-associated protein tau (Homo sapiens) (UniProt P10636)
Assay: qHTS for Inhibitors of Tau Fibril Formation, Thioflavin T Binding; further: nearly all actives have a fitted effect of over 55% in size
Conditions: recombinant tau K18 P301L (four-repeat tau fragment), heparin-induced fibrillization, ThT fluorescence; series mostly up to 57.4 µM
How it was run: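 Tau K18 P301L fragment (15 uM unlabeled plus 0.24 uM Alexa 594-labeled) in 100 mM sodium acetate pH 7 with compound, fibrillization induced by 20 uM heparin for 6 hr at 37 C. Thioflavin T (30 uM) added, fluorescence read after 1 hr (ex 450, em 510 nm).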
Potency means the concentration at half of the fitted maximal effect; tags describe the fitted curve by direction and shape.

UniProt P10636, sequence (P10636 whole entry, looked up): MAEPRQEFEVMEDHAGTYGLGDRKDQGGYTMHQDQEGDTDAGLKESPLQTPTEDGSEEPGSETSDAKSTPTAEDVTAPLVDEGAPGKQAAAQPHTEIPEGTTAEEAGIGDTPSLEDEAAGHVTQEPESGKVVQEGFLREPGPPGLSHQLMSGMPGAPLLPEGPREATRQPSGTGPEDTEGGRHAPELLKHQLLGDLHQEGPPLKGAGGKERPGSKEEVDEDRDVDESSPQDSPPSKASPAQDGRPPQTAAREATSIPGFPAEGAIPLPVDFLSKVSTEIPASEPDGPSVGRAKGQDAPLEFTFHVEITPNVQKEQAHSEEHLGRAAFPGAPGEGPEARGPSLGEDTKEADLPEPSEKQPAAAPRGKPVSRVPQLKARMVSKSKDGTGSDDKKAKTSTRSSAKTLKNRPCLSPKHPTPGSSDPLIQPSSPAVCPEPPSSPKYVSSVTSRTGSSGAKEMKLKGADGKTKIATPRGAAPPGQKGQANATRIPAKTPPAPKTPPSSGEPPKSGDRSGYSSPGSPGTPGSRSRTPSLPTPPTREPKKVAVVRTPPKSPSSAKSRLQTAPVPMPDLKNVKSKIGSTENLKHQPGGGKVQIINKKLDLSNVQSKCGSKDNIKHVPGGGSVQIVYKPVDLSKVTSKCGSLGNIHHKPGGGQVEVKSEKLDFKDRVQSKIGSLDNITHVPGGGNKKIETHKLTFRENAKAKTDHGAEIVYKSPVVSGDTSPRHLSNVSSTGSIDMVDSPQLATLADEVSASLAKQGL

Q: `CCOCCc1nnc(NC(=O)C(=O)c2cc(C)n(-c3cccc(C)c3)c2C)s1` was tested. Which Potency did it give?
A: inactive

Q: For `C/C(CCS(=O)(=O)c1ccccc1)=N/O`, which Potency is on record?
A: inactive

Q: `Cc1ncc([N+](=O)[O-])n1CC(=O)N/N=C/c1ccc(F)cc1` was tested. Which Potency did it give?
A: inactive

Q: For `OC(CN1CCOCC1)CN1CCOCC1`, which Potency is on record?
A: inactive

Q: For `CCC(=O)Nc1ccc(C(=O)N/N=C/c2ccccc2[N+](=O)[O-])cc1`, which Potency is on record?
A: inconclusive: 1.41 µM [inhibitor, full curve]

Q: Which Potency does the source give for `CCOc1ccc2nc(NC(=O)Cc3cccs3)sc2c1` here?
A: inactive

Q: How did the Potency turn out when `CCCCn1c(O)c(/C=C2\C=NN=C2c2ccccc2)sc1=S` was run?
A: inactive

Q: `Cc1cccc(N2CCN(S(=O)(=O)c3cn(C)c(C)n3)CC2)c1C` was tested. Which Potency did it give?
A: inactive

Q: Which Potency does the source give for `CCOc1ccccc1C(=O)Oc1c(S(=O)(=O)c2ccc(C)cc2)c(C)nn1-c1ccccc1` here?
A: inconclusive: 35.5 µM [inhibitor, single point]

Q: How did the Potency turn out when `Cc1ccccc1CN1CCc2nc(N3CCN(c4ncccn4)CC3)ncc2C1` was run?
A: inconclusive: 14.1 µM [inhibitor, partial curve, poor fit]

Q: With `Cc1ccc(CNC(=O)c2ccc(CS(=O)(=O)Cc3ccc(F)cc3)o2)cc1` as the compound, how does the Potency read?
A: inactive

Q: `CCCCc1nn2c(=O)cc(COC(=O)c3cccc(NC(=O)c4cccc(Cl)c4)c3)nc2s1` was tested. Which Potency did it give?
A: inconclusive: 0.447 µM [inhibitor, full curve]

Q: With `Cc1ccc(SCC(=O)Nc2ccc(S(=O)(=O)Nc3nccs3)cc2)cc1` as the compound, how does the Potency read?
A: inactive

Q: How did the Potency turn out when `CCc1c(C)sc(NC(=O)c2cc(C(C)C)on2)c1C#N` was run?
A: inactive

Q: Which Potency does the source give for `N#CSCC(=O)c1cccc2ccccc12` here?
A: active: 25.1 µM

Q: How did the Potency turn out when `COc1cc(OC)c(NC(=O)Cn2c(=O)c(C(F)(F)F)nc3ccccc32)cc1Cl` was run?
A: inactive

Q: For `Cc1ccc(Cl)cc1-n1c(CCC(=O)O)ccc1-c1cccs1`, which Potency is on record?
A: inconclusive: 1.58 µM [inhibitor, partial curve]

Q: For `Cc1ncoc1C(=O)Nc1nccs1`, which Potency is on record?
A: inconclusive: 20 µM [inhibitor, partial curve]

Q: How did the Potency turn out when `COC(=O)c1ccc(CSc2nc3c([nH]c4ccccc43)c(=O)n2-c2ccc(F)cc2)o1` was run?
A: inactive

Q: For `O=C(Cn1c(=O)n(-c2ccccc2)c(=O)c2ccc(C(=O)NCc3ccc4c(c3)OCO4)cc21)Nc1ccc(F)cc1`, which Potency is on record?
A: inconclusive: 31.6 µM [activator, single point]

Q: With `c1ccc2c(c1)[nH]c1c(N3CCOCC3)ncnc12` as the compound, how does the Potency read?
A: inactive

Q: Which Potency does the source give for `COc1ccc(/C=C2\COc3ccccc3C2=O)cc1OC` here?
A: inconclusive: 7.94 µM [inhibitor, full curve]

Q: With `CC(=O)c1ccc(N2CCc3ccccc3C2)c([N+](=O)[O-])c1` as the compound, how does the Potency read?
A: inconclusive: 14.1 µM [inhibitor, partial curve]

Source: PubChem BioAssay AID1460 (National Center for Advancing Translational Sciences (NCATS), 2008)
